Laboratory results taken from PubChem BioAssay AID1159614 (National Center for Advancing Translational Sciences (NCATS), 2016).
Among all 45,000 compounds or so, about 65 (0.1%) were called active. Calls follow the shape of the dose curve; as a rule, active = well fitted activation curve with a large enough effect; inconclusive = small, poorly fitted or top-dose-only effect; inactive = no such curve, though single readings can be large or run the other way. The list shows a part of the results.

Molecular target: Galactocerebrosidase (Homo sapiens) (UniProt P54803)
UniProt P54803, sequence (P54803 whole entry, looked up): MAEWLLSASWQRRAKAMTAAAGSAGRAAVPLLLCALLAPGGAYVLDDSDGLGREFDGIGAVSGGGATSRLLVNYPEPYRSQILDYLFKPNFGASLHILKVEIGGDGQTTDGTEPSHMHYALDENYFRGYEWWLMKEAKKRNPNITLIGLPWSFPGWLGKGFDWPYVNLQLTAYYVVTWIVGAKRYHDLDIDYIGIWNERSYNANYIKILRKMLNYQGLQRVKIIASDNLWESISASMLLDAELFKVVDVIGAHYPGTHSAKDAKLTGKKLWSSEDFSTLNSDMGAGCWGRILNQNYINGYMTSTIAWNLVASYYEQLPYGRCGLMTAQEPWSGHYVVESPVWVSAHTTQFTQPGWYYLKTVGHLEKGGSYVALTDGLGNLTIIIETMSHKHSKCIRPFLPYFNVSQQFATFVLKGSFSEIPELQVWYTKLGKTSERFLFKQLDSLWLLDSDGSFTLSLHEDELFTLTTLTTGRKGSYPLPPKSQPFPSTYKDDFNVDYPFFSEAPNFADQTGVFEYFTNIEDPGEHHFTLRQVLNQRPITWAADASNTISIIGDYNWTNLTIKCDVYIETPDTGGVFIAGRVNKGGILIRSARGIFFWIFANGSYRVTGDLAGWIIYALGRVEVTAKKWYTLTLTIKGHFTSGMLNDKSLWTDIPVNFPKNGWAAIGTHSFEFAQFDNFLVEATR
Assay: A Novel Cell-Based Assay to Identify Small Molecules for B -Galactocerebrosidase; also: 0% is about no effect; nearly all actives have a fitted effect of over 65% in size
Conditions: 145M-Twi-hGALC-G270D cells (Twitcher mouse brain line with human GALC G270D), HMU-beta-Gal fluorescence, 48 h; series mostly up to 57.5 µM; activation: at the top concentration
Method in brief: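 Fluorogenic HMU-b-Gal hydrolysis (0.1 mM final, pH 5.2 citrate-phosphate with 1 mg/mL sodium taurocholate; carbonate stop buffer) measures mutant GALC activity after compound treatment of live 145M-Twi Twitcher brain cells stably carrying human GALC-G270D, with wild-type GALC line alongside; activation sought.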

activation, inactive:
Cc1cccc(C(=O)Nc2cc3c(cc2C)n(C)c(=O)n3C)c1 -13.4%
CCC(=O)N1CCc2cc(Br)cc(S(=O)(=O)NCCc3cccc(C)c3)c21 -4.68%
CC(=O)N1CCc2cc(S(=O)(=O)NC(Cc3ccccc3)C(=O)NCc3ccccc3)ccc21 (stereo unspecified) -12.4%
Cc1ccc(Cn2c(=O)n(Cc3ccccc3)c(=O)c3oc4ccccc4c32)cc1 -15.6%
CC(=O)Nc1ccc(NC(=O)c2ccc3c(c2)N(Cc2cccc(Cl)c2)C(=O)c2ccccc2S3=O)cc1 (stereo unspecified) -10.7%
COCc1nc2ccccc2n1Cc1ccc(C(C)(C)C)cc1 19.9%
O=C(CCCCn1c(=O)c2ccccc2n(Cc2cccc(F)c2)c1=O)NCCc1ccccc1 -10.7%
COc1ccccc1NC(=O)Cn1c(C)cc(C)c(C#N)c1=O -5.89%
Cc1ccc(C)c(NC(=O)CN2C(=O)CCc3cc(S(=O)(=O)N4CCCCC4)ccc32)c1 -3.88%
NS(=O)(=O)c1cc2c(cc1Cl)CN(C1CCCCC1)C2=O -10.4%
Cc1ccc2c(c1)-c1nc(-c3ccc4c(c3)NC(=O)CO4)cc(-c3ccccc3)c1CO2 -9.32%
CC(=O)N1CCC(N(Cc2ccc(C)o2)C(=O)Nc2cccc(C(F)(F)F)c2)CC1 -10.5%
CC(=O)N1CCc2c(sc3c2c(=O)n(-c2ccccc2)c(=O)n3CC(=O)c2ccccc2)C1 -17.7%
COc1ccc(NC(=O)Nc2cc(-c3cn4cccnc4n3)ccc2C)cc1 -13.6%
O=C(NC1CCN(Cc2ccccc2)CC1)c1ccc(Cn2c(=O)c3ccccc3n(Cc3ccc(Cl)cc3)c2=O)cc1 -2.33%
Cc1ccc(-c2cnc(C3CC3)o2)cc1S(=O)(=O)Nc1cccc(C)c1C -13.9%
CC(C)(C)OC(=O)N1CCC(c2c(C(=O)N3CCN(c4ccccn4)CC3)cnn2-c2ccc(F)cc2F)CC1 -8.29%
COc1ccc2[nH]c3c(c2c1)CCN(C(=O)CCC1CCCC1)C3c1ccc(F)cc1 (stereo unspecified) -29.6%
Cc1cccc(Cn2c(-c3ccccc3)nc3ccccc32)c1 -12.5%
O=C(CSc1nccn1-c1ccc(F)cc1)Nc1nc2ccccc2s1 -13.9%
O=C(CC1N=C2c3ccccc3N=C(SCc3ccc(F)cc3)N2C1=O)NCCc1ccccc1 (stereo unspecified) 0.41%
COc1ccc(NC(=O)c2oc3ccccc3c2NC(=O)c2cc(=O)c3cc(Cl)ccc3o2)cc1 5.37%
COc1ccc(Cl)cc1NCc1nnc2n1CCCCC2 -22.1%
COc1ccc(CC(C)NS(=O)(=O)c2ccc3c(c2)CCN3S(C)(=O)=O)cc1OC (stereo unspecified) -3.92%
COC(=O)c1c(NC(=O)c2ccc(OC)cc2OC)sc2c1CCCCC2 -13.2%
Cc1ccc(NC(=O)C2CCCN(c3ncnc4c3nc3n4CCCCC3)C2)c(Br)c1 (stereo unspecified) -23.3%
CCn1c(=O)c2cc(C(=O)NCc3cc(OC)ccc3OC)sc2c2ccccc21 1.14%
CCN1CCN(c2csc3ccc(Br)cc3c2=O)CC1 -15.3%
COc1ccc(NC(=O)C2CCCN(S(=O)(=O)c3c(C)[nH]c(=O)[nH]c3=O)C2)cc1OC (stereo unspecified) 11.3%
CC(C)(C)c1ccc(C(=O)NCC(=O)OCc2cc(=O)n3nc(C4CC4)sc3n2)cc1 -5.24%
Cc1cc(C)cc(-n2c(SCC(=O)Nc3ccccc3)nc3c(oc4ccccc43)c2=O)c1 -10.4%
CCOc1ccc2nc(NC(=O)c3nc(SCc4ccccc4F)ncc3Cl)sc2c1 -12.2%
CCCCn1c(=O)n(CC2CCC(C(=O)NCCCOC)CC2)c(=O)c2sccc21 (stereo unspecified) -17.5%
COc1cc(OC)cc(-c2nc3nc(C)c(CCC(=O)Nc4cc(C)cc(C)c4)c(C)n3n2)c1 5.42%
CC(=O)c1ccc(NC(=O)CSC2=Nc3ccccc3N=C(c3ccc(F)cc3)C2)cc1 3.13%
CC(C)Cn1cc(NC(=O)N2CCN(c3ccc(F)cc3)CC2)c2ccccc2c1=O -21.2%
O=C(NCc1ccc(Cl)cc1)C1CCN(S(=O)(=O)c2cccc3nonc23)CC1 -11.7%
CCC(Cc1ccccc1)NC(=O)Cn1nc(C)n2c(cc3occc32)c1=O (stereo unspecified) -10.7%
Cc1ccc(-n2nc3c(=O)n(C(C)C(=O)NCc4ccc(OC(C)C)cc4)nc(C)c3c2C)cc1 (stereo unspecified) -19.2%
COc1ccc2c(CNCc3cccs3)c(C(=O)O)n(Cc3ccc(F)cc3)c2c1 -6.64%
Cc1ccc2c(CNC3CCCCC3)c(C(=O)O)n(Cc3ccc(F)cc3)c2c1 -16.8%
O=C(Cn1c(SCc2ccc(F)cc2)nc2cccnc21)Nc1ccccc1F 1.86%
Cc1ccc2nc(COc3cccc(NC(=O)Nc4ccc(C)c(Cl)c4)c3)cc(=O)n2c1 -0.268%
COCCNC(=O)c1ccc2c(c1)N(Cc1cc(C)ccc1C)C(=O)c1ccccc1S2=O (stereo unspecified) -10.4%
CCCS(=O)(=O)N1CC(=O)N(c2cccc(Cl)c2)C(C)(C(=O)NC2CCCCC2)C1 (stereo unspecified) 2.54%
CC(=O)c1cccc(NC(=O)c2sc(-n3nc(C)c(Cc4ccccc4)c3C)nc2C)c1 -16.9%
Cc1cc(=O)[nH]c2nnc(SCc3ccc(Cl)cc3Cl)n12 0.24%
CCOc1ccccc1CNC(=O)c1cc2c(=O)n(Cc3cccnc3)ccc2nc1C -17.5%
O=C(Nc1ccc(F)c(Cl)c1)c1ccc2c(Cl)c3c(nc2c1)CCCC3 6.32%
COc1cccc2cc(-c3nc(-c4ccccc4F)no3)c(=O)oc12 7.41%
CCc1ccccc1Nc1nn2c(=O)c3ccc(C(=O)NCCC4=CCCCC4)cc3nc2s1 -25%
CCCC(=O)Nc1cccc(OCc2cc(=O)n3cccc(C)c3n2)c1 1.79%
Cc1cc(=O)n2nc(N(C)CC(=O)NCc3ccccc3C)sc2n1 -15.5%
O=C(NCCc1ccccc1)c1cc(Nc2ccccc2)nc2ccccc12 -14.8%
Cc1ccccc1-c1noc(CSc2nc3ccccc3[nH]2)n1 -12%
COCCCn1c(SCc2cccc(Cl)c2)nc2c(sc3ccccc32)c1=O 2.2%
CCOC(=O)C1CCCN(C(=O)c2ccc3c(c2)sc2nc(-c4cccc(OC)c4)cn23)C1 (stereo unspecified) -16.1%
CCOCCc1nn2c(=O)cc(COC(=O)c3ccccc3OC)nc2s1 -3.26%
COc1ccc(CCCc2nnc(SCC(=O)Nc3cccc(F)c3C)o2)cc1 2.06%
CCn1c(C)c(C)c2cc(C(=O)NCC(C)c3ccccc3)ccc21 (stereo unspecified) -21.1%
COc1ccc2c(c1)c1c(c(=O)n(Cc3ccccc3)c(=O)n1CC(=O)Nc1ccccc1OC)n2C -6.78%
